Source: the supplement of paper PMC8728848
The other results are listed elsewhere or left out.

Legend:
Experiment in all cases: glycan array binding signal (z-score within array); higher = stronger binding
Details in all cases: glycan notation: IUPAC condensed, linker removed
[1] = target: Neu5Ac(a2-6)Gal(b1-4)GlcNAc(b1-3)Gal(b1-4)GlcNAc(b1-2)Man(a1-3)[Neu5Ac(a2-6)Gal(b1-4)GlcNAc(b1-3)Gal(b1-4)GlcNAc(b1-2)Man(a1-6)]GalNAc
Method in brief: (§1)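 The binding signal is a Z-score computed within each array and averaged over linkers. Arrays of the same protein sequence at different concentrations or buffers were also averaged together. Data originate from 3228 arrays in the Consortium for Functional Glycomics database, kept only where the protein sequence was available.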

[2] = target: Neu5Ac(a2-6)Gal(b1-4)GlcNAc(b1-3)Gal(b1-4)GlcNAc(b1-3)Gal(b1-4)GlcNAc
Method in brief: as §1

[3] = target: Neu5Ac(a2-6)Gal(b1-4)GlcNAc(b1-3)Gal(b1-4)GlcNAc(b1-3)Gal(b1-4)GlcNAc(b1-2)Man(a1-3)[Neu5Ac(a2-6)Gal(b1-4)GlcNAc(b1-3)Gal(b1-4)GlcNAc(b1-3)Gal(b1-4)GlcNAc(b1-2)Man(a1-6)]GalNAc
Method in brief: as §1

[4] = target: Neu5Ac(a2-6)Gal(b1-4)GlcNAc(b1-3)Gal(b1-4)GlcNAc(b1-3)GalNAc
Method in brief: as §1

[5] = target: Neu5Ac(a2-6)Gal(b1-4)GlcNAc(b1-3)Gal(b1-4)GlcNAc(b1-3)[Neu5Ac(a2-6)Gal(b1-4)GlcNAc(b1-3)Gal(b1-4)GlcNAc(b1-6)]GalNAc
Method in brief: as §1

[6] = target: Neu5Ac(a2-6)Gal(b1-4)GlcNAc(b1-3)Gal(b1-4)GlcNAc(b1-6)[Gal(b1-3)]GalNAc
Method in brief: as §1

[7] = target: Neu5Ac(a2-6)Gal(b1-4)GlcNAc(b1-3)Gal(b1-4)[Fuc(a1-3)]GlcNAc(b1-3)Gal(b1-4)[Fuc(a1-3)]GlcNAc
Method in brief: as §1

[8] = target: Neu5Ac(a2-6)Gal(b1-4)GlcNAc(b1-3)GalNAc
Method in brief: as §1

[9] = target: Neu5Ac(a2-6)Gal(b1-4)GlcNAc(b1-3)[Neu5Ac(a2-6)Gal(b1-4)GlcNAc(b1-6)]GalNAc
Method in brief: as §1

[10] = target: Neu5Ac(a2-6)Gal(b1-4)GlcNAc(b1-6)GalNAc
Method in brief: as §1

[11] = target: Neu5Ac(a2-6)Gal(b1-4)GlcNAc(b1-6)[Gal(b1-3)GlcNAc(b1-3)]Gal(b1-4)Glc
Method in brief: as §1

[12] = target: Neu5Ac(a2-6)Gal(b1-4)GlcNAc(b1-6)[Gal(b1-3)]GalNAc
Method in brief: as §1

[13] = target: Neu5Ac(a2-6)Gal(b1-4)GlcNAc6S
Method in brief: as §1

Neu5Ac(a2-6)GalNAc = target: Neu5Ac(a2-6)GalNAc
Method in brief: as §1

[14] = target: Neu5Ac(a2-6)GalNAc(b1-4)GlcNAc
Method in brief: as §1

[15] = target: Neu5Ac(a2-6)GalNAc(b1-4)GlcNAc6S
Method in brief: as §1

[16] = target: Neu5Ac(a2-6)GlcNAc(b1-4)GlcNAc
Method in brief: as §1

[17] = target: Neu5Ac(a2-6)GlcNAc(b1-4)GlcNAc(b1-4)GlcNAc
Method in brief: as §1

Neu5Ac(a2-8)Neu5Ac = target: Neu5Ac(a2-8)Neu5Ac
Method in brief: as §1

[18] = target: Neu5Ac(a2-8)Neu5Ac(a2-3)Gal(b1-3)GalNAc(b1-4)[Neu5Ac(a2-3)]Gal(b1-4)Glc
Method in brief: as §1

[19] = target: Neu5Ac(a2-8)Neu5Ac(a2-3)Gal(b1-3)GalNAc(b1-4)[Neu5Ac(a2-8)Neu5Ac(a2-3)]Gal(b1-4)Glc
Method in brief: as §1

[20] = target: Neu5Ac(a2-8)Neu5Ac(a2-3)Gal(b1-4)Glc
Method in brief: as §1

[21] = target: Neu5Ac(a2-8)Neu5Ac(a2-3)Gal(b1-4)GlcNAc
Method in brief: as §1

[22] = target: Neu5Ac(a2-8)Neu5Ac(a2-3)[Gal(b1-3)GalNAc(b1-4)]Gal(b1-4)Glc
Method in brief: as §1

[23] = target: Neu5Ac(a2-8)Neu5Ac(a2-3)[GalNAc(b1-4)]Gal(b1-4)Glc
Method in brief: as §1

[24] = target: Neu5Ac(a2-8)Neu5Ac(a2-8)Neu5Ac
Method in brief: as §1

[25] = target: Neu5Ac(a2-8)Neu5Ac(a2-8)Neu5Ac(a2-3)Gal(b1-4)Glc
Method in brief: as §1

[26] = target: Neu5Ac(a2-8)Neu5Ac(a2-8)Neu5Ac(a2-3)[Gal(b1-3)GalNAc(b1-4)]Gal(b1-4)Glc
Method in brief: as §1

[27] = target: Neu5Ac(a2-8)Neu5Ac(a2-8)Neu5Ac(a2-3)[GalNAc(b1-4)]Gal(b1-4)Glc
Method in brief: as §1

[28] = target: Neu5Ac(a2-8)Neu5Ac(a2-8)Neu5Ac(a2-8)Neu5Ac(a2-3)[GalNAc(b1-4)]Gal(b1-4)Glc
Method in brief: as §1

[29] = target: Neu5Ac(a2-8)Neu5Gc(a2-3)Gal(b1-4)GlcNAc
Method in brief: as §1

[30] = target: Neu5Ac(b2-6)Gal(b1-4)GlcNAc
Method in brief: as §1

Neu5Ac(b2-6)GalNAc = target: Neu5Ac(b2-6)GalNAc
Method in brief: as §1

[31] = target: Neu5Ac9Ac(a2-3)Gal(b1-3)GlcNAc
Method in brief: as §1

[32] = target: Neu5Ac9Ac(a2-3)Gal(b1-4)GlcNAc
Method in brief: as §1

[33] = target: Neu5Ac9Ac(a2-6)Gal(b1-4)GlcNAc
Method in brief: as §1

[34] = target: Neu5Gc(a2-3)Gal(b1-3)GlcNAc
Method in brief: as §1

[35] = target: Neu5Gc(a2-3)Gal(b1-3)[Fuc(a1-4)]GlcNAc
Method in brief: as §1

Neu5Gc(a2-3)Gal(b1-4)Glc = target: Neu5Gc(a2-3)Gal(b1-4)Glc
Method in brief: as §1

[36] = target: Neu5Gc(a2-3)Gal(b1-4)GlcNAc
Method in brief: as §1

[37] = target: Neu5Gc(a2-3)Gal(b1-4)GlcNAc(b1-3)Gal(b1-4)GlcNAc(b1-2)Man(a1-3)[Neu5Gc(a2-3)Gal(b1-4)GlcNAc(b1-3)Gal(b1-4)GlcNAc(b1-2)Man(a1-6)]Man(b1-4)GlcNAc(b1-4)GlcNAc
Method in brief: as §1

[38] = target: Neu5Gc(a2-3)Gal(b1-4)[Fuc(a1-3)]GlcNAc
Method in brief: as §1

[39] = target: Neu5Gc(a2-3)Gal(b1-4)[Fuc(a1-4)]GlcNAc
Method in brief: as §1

[40] = target: Neu5Gc(a2-6)Gal(b1-4)GlcNAc
Method in brief: as §1

Neu5Gc(a2-6)GalNAc = target: Neu5Gc(a2-6)GalNAc
Method in brief: as §1

[41] = target: Neu5Gc(a2-8)Neu5Ac(a2-3)Gal(b1-4)GlcNAc
Method in brief: as §1

[42] = target: Neu5Gc(a2-8)Neu5Gc(a2-3)Gal(b1-4)GlcNAc
Method in brief: as §1

[43] = target: Neu5Gc(a2-8)Neu5Gc(a2-3)Gal(b1-4)GlcNAc(b1-3)Gal(b1-4)GlcNAc
Method in brief: as §1

[44] = target: Neu5Gc(a2-8)Neu5Gc(a2-6)Gal(b1-4)GlcNAc
Method in brief: as §1

[45] = target: Neu5Gc(b2-6)Gal(b1-4)GlcNAc
Method in brief: as §1

B1: Epa1-NP (Candida glabrata), Q6VBJ0 (protein)
chain: MILNPALFLNKCVCIYTTLILLLLTNGGYATSSNDISLASKDPTTFPLGCSPDITTPKKGLSMELYSYDFRKKGSYPCWDAAYLDPNYPRTGYKSHRLLAKVDGVTGNINFYYHATKGCTPQLGHLPASYNYPKPLTMTNFTMLLYGYFRPKVTGFHTFTISADDLLFVNFGAGNAFDCCRRDSSADHFGNYQAYAIWGSKTAKDELTVHLDAGVYYPIRLFYNNREYDGALSFTFKTESNENTVSDFSEYFFSLDDTEEGCPGLISYDSSCASVKTSKIIGIDYHTETPNENLVPITKTIYHLGIPCTGTTTTPLCGSGFYDPLANKCVTINTSSTSSVTKTTSHTTSKEVSFHSSISSQKTLIPKSIPSPYGPIKSQSIPTEMETSSEISSSEYAFSDVISTPSHSPYTKKHSSLNSSSYTSTVIHSLTSYSISQGIFSTSLSEQNITSKSSTDKFSTATSMSNNITQSSIIISQFSTNNENYTTTSMHTSSDKISTETLNNSISTTTSILFSNSSTILKNNTTIISSDKDTHYHPVNPTIVCSTNKTEIICASITQPSISNSNNHWSSSVLKFNSTTVRSTLPSSAGSNETSINVPFSSSTESNTSTSSTSTSNSKMVRSTLPSSAGSNETSISVPFSSSTESNTSTSSTSTSNSKMVRSTLPSSAGSNETSINVPFSSSTESNTSTSSTSTSNSKTVRSTPFSSAGIIMTSLSQRNNKSASSYASSNSKCYNTADSCRKVHSTPSYLLTSSYTSEGVDYDCSLVSTKLKINDTNCVNNKHTTKSCLKTSVTTTIPTLEIKTARKSSSNTIGLHSYPTSSPNKSISSAPIIGYISSFKTIKTASPSYQTSDLTTITTITSLNNPGSTAVENTHESNDKSRKTSSNDISSKHSVIKETKDAVESSNKSHQTNTLKCSSIIIASSSHNSYESLGGTTLTLTLSKVYSPQNNDTLPFLEISEVNPSRTVLPESSKMMQYLTSTEERNKTARNTIATNIVSISTFHFEGEGNAIRMGYTQLLLMLIGIIVMNIGT
[1]
  glycan array binding signal (z-score): -0.171
[2]
  glycan array binding signal (z-score): -0.285
[3]
  glycan array binding signal (z-score): -0.273
[4]
  glycan array binding signal (z-score): -0.285
[5]
  glycan array binding signal (z-score): -0.279
[6]
  glycan array binding signal (z-score): 0.913
[7]
  glycan array binding signal (z-score): -0.313
[8]
  glycan array binding signal (z-score): -0.166
[9]
  glycan array binding signal (z-score): -0.274
[10]
  glycan array binding signal (z-score): -0.284
[11]
  glycan array binding signal (z-score): -0.24
[12]
  glycan array binding signal (z-score): 1.03
[13]
  glycan array binding signal (z-score): -0.31
Neu5Ac(a2-6)GalNAc
  glycan array binding signal (z-score): -0.306
[14]
  glycan array binding signal (z-score): -0.342
[15]
  glycan array binding signal (z-score): -0.288
[16]
  glycan array binding signal (z-score): -0.281
[17]
  glycan array binding signal (z-score): -0.282
Neu5Ac(a2-8)Neu5Ac
  glycan array binding signal (z-score): -0.295
[18]
  glycan array binding signal (z-score): -0.282
[19]
  glycan array binding signal (z-score): 0.029
[20]
  glycan array binding signal (z-score): -0.42
[21]
  glycan array binding signal (z-score): -0.29
[22]
  glycan array binding signal (z-score): 0.862
[23]
  glycan array binding signal (z-score): -0.333
[24]
  glycan array binding signal (z-score): -0.321
[25]
  glycan array binding signal (z-score): -0.328
[26]
  glycan array binding signal (z-score): -0.27
[27]
  glycan array binding signal (z-score): -0.344
[28]
  glycan array binding signal (z-score): -0.324
[29]
  glycan array binding signal (z-score): -0.293
[30]
  glycan array binding signal (z-score): -0.275
Neu5Ac(b2-6)GalNAc
  glycan array binding signal (z-score): -0.287
[31]
  glycan array binding signal (z-score): -0.281
[32]
  glycan array binding signal (z-score): -0.307
[33]
  glycan array binding signal (z-score): -0.309
[34]
  glycan array binding signal (z-score): -0.348
[35]
  glycan array binding signal (z-score): -0.321
Neu5Gc(a2-3)Gal(b1-4)Glc
  glycan array binding signal (z-score): -0.308
[36]
  glycan array binding signal (z-score): -0.317
[37]
  glycan array binding signal (z-score): -0.287
[38]
  glycan array binding signal (z-score): -0.262
[39]
  glycan array binding signal (z-score): -0.553
[40]
  glycan array binding signal (z-score): -0.326
Neu5Gc(a2-6)GalNAc
  glycan array binding signal (z-score): -0.328
[41]
  glycan array binding signal (z-score): -0.286
[42]
  glycan array binding signal (z-score): -0.286
[43]
  glycan array binding signal (z-score): -0.289
[44]
  glycan array binding signal (z-score): -0.286
[45]
  glycan array binding signal (z-score): -0.255
